In PubChem BioAssay AID445 (National Center for Advancing Translational Sciences (NCATS), 2006):
Out of some 110,000 compounds screened, about 40 (0.04%) were called active. The shares of active, inactive and inconclusive entries below differ from those in the screen. Calls follow the shape of the dose curve; as a rule, active = well fitted curve in the direction sought with a large enough effect in the signal ratio (not every such curve was filed as active); inconclusive = small, poorly fitted or top-dose-only effect, or a change in a side signal; inactive = flat fitted curve, though single readings scatter; the % refers to the signal ratio. A potency beside an inconclusive call is a rough fit, not a confirmed value.

Experiment: IkB Signaling;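 as to IkBa stabilization activation: 0% = basal untreated cells and 100% = reference inhibitor full response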
Conditions: ABC-DLBCL IkBa-CBG/CBR dual luciferase ratio (green luciferase fused to IkBa over red control in OCI-Ly3 lymphoma cells), 4 h; IkBa stabilization activation: at 57.1 µM (top of the series), scaled: untreated 0%, proteasome inhibitor 100% unless noted
Procedure, shortened: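 In this assay, an IκBα–CBG68 fusion accumulates when IKK-driven degradation is blocked; native CBR normalizes for cell number. OCI-Ly3 cells were treated 4 h with compound and doxycycline, then green and red light read after Chroma-Glo addition.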
Potency is read from the fitted curve at half-maximal effect.

| SMILES | IkBa stabilization activation | Potency |
| --- | --- | --- |
| CCC(=O)Nc1ccc(Cl)c(-c2nc3ccccc3[nH]2)c1 | inconclusive: 1.44% [signal inhibitor] |  |
| Cc1cccc(NC(=O)c2ccc(-n3c(C)nnc3C)cc2)c1 | inconclusive: 14.9% [signal activator] |  |
| Cc1ccc(-n2ncc3c(N4CCCCCC4)ncnc32)cc1Cl |  | inconclusive: 15.8 µM [signal inhibitor] |
| CN(C)c1nc(N)nc(CSc2n[nH]c(-c3ccccc3)n2)n1 | inactive: 2.44% |  |
| COc1ccccc1CNC(=O)CCc1c(C)nc2cc(-c3ccc(Cl)cc3)nn2c1C |  | inconclusive: 1 µM [signal inhibitor] |
| Cc1cc2oc(=O)c(CC(=O)NCCc3ccccc3F)c(C)c2c2occ(C(C)(C)C)c12 | inconclusive: 0.0206% [signal inhibitor] |  |
| CC(=O)Nc1cc(C(=O)NCc2ccc(F)cc2)ccc1Sc1ccc(F)cc1 | inconclusive: -0.22% [signal inhibitor] |  |
| COc1cccc2[nH]c3c(N4CCCC(C)C4)ncnc3c12 (centres undefined) | inactive: 1.33% |  |
| CCCCN(C(=O)C1CCC(CNS(=O)(=O)c2cccc3nsnc23)CC1)c1ccccc1 (centres undefined) | inconclusive: -0.449% [signal inhibitor] |  |
| CC(=O)Nc1ccc(NC(=O)CN(C)S(=O)(=O)c2ccc3c(c2)CCCC(=O)N3)cc1 | inactive: 0.0936% |  |
| Oc1[nH]c2ccccc2c1C1=NCCCC1 | inactive: -0.961% |  |
| Cc1cnc(CNc2nc(-c3ccc(N(C)C)cc3)nc3ccccc23)cn1 | inactive: 0.335% [at 11.4 µM, scaled: untreated 0%, proteasome inhibitor 100%] |  |
| COc1ccc(CC(=O)NCC(c2cccs2)S(=O)(=O)c2ccc(F)c(C)c2)cc1 (centres undefined) | inconclusive: 1.05% [signal inhibitor] |  |
| Cc1cccc(CN2CCC(CNC(=O)Cn3ncc4c([nH]c5ccc(C)cc54)c3=O)CC2)c1 | inactive: -2.13% |  |
| CCOC(=O)c1ccc(N=Cc2nc3ccccc3n2C)cc1 | inactive: 5.11% |  |
| Cc1ccccc1CSc1ncc(Cl)c(C(=O)Nc2nc3ccc(F)cc3s2)n1 | inactive: 1.04% |  |
| COc1ccccc1C(=O)N/C(=C\c1cn(S(=O)(=O)N(C)C)c2ccccc12)C(=O)NCCCn1ccnc1 | inconclusive: 2.54% [signal inhibitor] |  |
| CCc1ccc(CNC(=O)C2CCCN(c3nnc(C)c4c(C)n(-c5ccccc5)nc34)C2)cc1 (centres undefined) | inconclusive: -3.39% [signal inhibitor] |  |
| Cc1cc2n(n1)CCC(=O)N2Cc1ccc(C(=O)Nc2cc(Cl)ccc2C)cc1 | inconclusive: 1.21% [signal inhibitor] |  |
| COc1ccc(OC)c(NC(=O)C2CCCN(S(=O)(=O)c3ccc4c(c3)CCCC(=O)N4)C2)c1 (centres undefined) | inconclusive: 2.12% [signal inhibitor] |  |
| O=C(Oc1ccc2c(c1)OCO2)c1cccs1 | inactive: 7.6e-05% |  |
| COc1ccccc1C(=O)Nc1ccc2nc(SCC(=O)N3CCCc4ccccc43)sc2c1 | inconclusive: 0.912% [signal inhibitor] |  |
| COc1ccccc1NC(=O)C1=C(C)Nc2nc(SC)nn2C1c1ccccc1Cl (centres undefined) | inconclusive: 4.96% [signal inhibitor] |  |

| SMILES | IkBa stabilization activation | Potency |
| --- | --- | --- |
| COc1cc(-c2nc(SCC(=O)Nc3ccc4c(c3)OCO4)c(-c3ccccc3)[nH]2)cc(OC)c1OC | inconclusive: 7.37% [signal inhibitor] |  |
| COc1ccc(-c2nnc(C3CCN(S(=O)(=O)c4cccc(Cl)c4)CC3)o2)cc1 | inconclusive: 0.71% [signal inhibitor] |  |
| COc1ccc(-c2nnc(SCC(=O)N3CCC(C)CC3)o2)cc1 | inconclusive: -1.45% [signal inhibitor] |  |
| CCNc1ncc2nc(CCc3ccccc3)c(=O)n(Cc3ccc(F)cc3)c2n1 | inactive: -0.28% [at 11.4 µM, scaled: untreated 0%, proteasome inhibitor 100%] |  |
| COc1ccccc1CNC(=O)CSc1ncc(S(=O)(=O)c2ccc(C)c(Cl)c2)c(=O)[nH]1 | inactive: 0.219% |  |
| CN(CC(=O)Nc1ccc(Cl)cc1)S(=O)(=O)c1cccc2cccnc12 | inconclusive: 4.47% [signal inhibitor] |  |
| COc1ccc(NC(=O)N2CCn3c2nc2ccccc23)cc1 |  | inconclusive: 15.8 µM [signal inhibitor, partial curve] |
| O=C(Nc1sc2c(c1C(=O)NCC1CCCO1)CCCC2)c1cccs1 (centres undefined) | inconclusive: 1.08% [signal inhibitor] |  |
| C[C@H](O)[C@H](O)[C@@H](O)c1cnc2nc(N)[nH]c(=O)c2n1 | inactive: 0.571% [at 11.4 µM, scaled: untreated 0%, proteasome inhibitor 100%] |  |
| COc1ccc(OCCn2c(NC(=O)c3ccc(OC)cc3)nc3ccccc32)cc1 | inconclusive: 16% [signal inhibitor] |  |
| CC1CCN(CC[S-])CC1.O.O.[Cl][Pt] |  | inconclusive: 6.31 µM [signal inhibitor, single point] |
| O=C1c2c(O)ccc([N+](=O)[O-])c2C(=O)c2c([N+](=O)[O-])ccc(O)c21 | inconclusive: 1.25% [signal inhibitor] |  |
| Cc1ccc(CNC(=O)Nc2ccccc2)cc1 | inactive: 2.11% |  |
| O=S(=O)(c1ccc(F)cc1)N1CCC(Oc2cccc(C(F)(F)F)c2)CC1 | inconclusive: 0.687% [signal inhibitor] |  |
| O=C(COC(=O)C1CCC1)NCc1ccccc1Cl | inactive: 0.533% |  |
| COc1ccc(S(=O)(=O)N2Cc3ccccc3CC2C(=O)Nc2ccc(C)cc2)cc1OC (centres undefined) | inconclusive: -2.43% [signal inhibitor] |  |
| CCOc1ccc(C(=O)Nc2c3c(nn2-c2ccc(F)cc2)CS(=O)C3)cc1 (centres undefined) | inactive: 0.199% |  |
| CCCC(c1nnnn1C(C)(C)CC)N(Cc1ccco1)Cc1cc2ccc(OC)cc2[nH]c1=O (centres undefined) | inconclusive: 0.46% [signal inhibitor] |  |
| Cc1cccc(N2CCN(C(=O)c3ccc4c(c3)N(Cc3ccccc3)C(=O)c3ccccc3S4(=O)=O)CC2C)c1 (centres undefined) | inactive: -1.23% |  |
| Cc1c2cnn(-c3ccccc3)c(=O)c2c(C)n1C(C)C(=O)Nc1ccccc1C(F)(F)F (centres undefined) | inconclusive: -1.4% [signal inhibitor] |  |
| Cc1ccc(C)c(NC(c2ccccc2)c2nnc(-c3ccccc3F)o2)c1 (centres undefined) | inconclusive: -0.832% [signal inhibitor] |  |
| CCOC(=O)CC(NC(=O)Cn1nnc(-c2ccccc2Cl)n1)c1ccc(OC)cc1 (centres undefined) | inconclusive: 1.47% [signal inhibitor] |  |
| Cc1ccccc1Cn1c(-c2cncs2)nc2ccccc21 | inactive: 2.59% |  |

| SMILES | IkBa stabilization activation | Potency |
| --- | --- | --- |
| Cc1noc(C)c1C(=O)N1CCC[C@@]2(CCN(C(=O)Nc3cccc(F)c3)C2)C1 | inactive: 2.63% [at 11.4 µM, scaled: untreated 0%, proteasome inhibitor 100%] |  |
| Clc1ccc(CCNc2nc3cc(Cl)c(Cl)cc3n3cnnc23)cc1 | inconclusive: 8.47% [signal inhibitor] |  |
| COc1ccc(CCN2C(=O)N(c3cccc(C)c3)C(=O)C2CC(=O)Nc2ccccc2)cc1OC (centres undefined) | inactive: 2.81% |  |
| CCc1ccc(NC(=O)c2cc(S(=O)(=O)NC3CCCC3)ccc2F)cc1 | inactive: 4.18% |  |
| CCCC12CN3CC(C)(CN(C1)C31C(=O)Nc3ccc(C)cc31)C2=O (centres undefined) | inactive: -1.45% |  |
| Cc1ccc(NC(=O)c2c(NC(=O)c3ccco3)sc3c2CCC(C(C)(C)C)C3)c(C)c1 (centres undefined) | inconclusive: 0.632% [signal inhibitor] |  |
| COc1cc(OC)c(NC(=O)c2nnn(Cc3ccc(C)cc3)c2N)cc1Cl | inconclusive: -0.244% [signal inhibitor] |  |
| CCOC(=O)C1=C(C)NC2=C(C(=O)C(C(=O)OCC)C(c3ccco3)C2)C1c1ccccn1 (centres undefined) | inactive: 0.104% |  |
| O=C(Cn1ncc2c3ccccc3n(Cc3ccc(Cl)cc3)c2c1=O)N1CCCCCC1 | inconclusive: 2.01% [signal inhibitor] |  |
| COc1ccc(Br)cc1CNC(=O)Cn1c(=O)c2cccn2c2ccc(F)cc21 | inactive: 0.999% |  |
| Cc1cc(C)c2oc(-c3cccc(NC(=O)c4ccc(Br)o4)c3)nc2c1 |  | inconclusive: 31.6 µM [signal inhibitor, single point] |
| Cc1ccccc1Cn1cc(CCC(=O)NC(C)c2ccccc2)c2ccccc21 (centres undefined) | inconclusive: 1.09% [signal inhibitor] |  |
| CCN[C@@H]1CN(CCCOC)S(=O)(=O)c2sc(S(N)(=O)=O)cc21 | inactive: 2.29% [at 25.6 µM, scaled: untreated 0%, proteasome inhibitor 100%] |  |
| CCC(C)c1ccc(OCC(=O)Nc2cccc(-c3nc4ncccc4o3)c2)cc1 (centres undefined) | inconclusive: 1.07% [signal inhibitor] |  |
| CSc1ccc(CNC(=O)CCn2ccc3cc(S(=O)(=O)N4CCC(C)CC4)ccc32)cc1 | inactive: 1.75% |  |
| COC(=O)c1c(C(=O)OC)c2oc3ccccc3n2c1Cl | inconclusive: 1.24% [signal inhibitor] |  |
| CC1=C(c2ccc(C)cc2)S(=O)(=O)N(Cc2ccc(C(=O)NCc3cccc(C)c3)cc2)C1=O | inconclusive: -2.36% [signal inhibitor] |  |
| O=C(Nc1sc2c(c1C(=O)Nc1ccccc1Cl)CCCC2)c1ccccc1F | inconclusive: 12.5% [signal inhibitor] |  |
| COC(=O)c1c(NC(=O)c2cc(=O)c3ccc(C)c(C)c3o2)sc2c1CCCC2 | inactive: 1.18% |  |
| O=C(NCc1ccccc1Br)C1CCCN(C(=O)N2CCOc3ccccc32)C1 (centres undefined) |  | inconclusive: 0.1 µM [signal inhibitor, full curve] |
| COc1ccc(OCC(O)Cn2c(=N)n(Cc3ccccc3)c3ccccc32)cc1 (centres undefined) | inconclusive: 0.794% [signal inhibitor] |  |
| Cc1ccc(NC(=O)CSc2nc(C)c(Cc3ccccc3)c(=O)[nH]2)cc1 | inconclusive: 13.1% [signal inhibitor] |  |
| Cn1c(SCC(=O)NCc2ccc3c(c2)OCO3)nnc1-c1cc2ccccc2cc1O | inconclusive: 2.18% [signal inhibitor] |  |
